Assay results reported in ChEMBL document CHEMBL4888484, “Replenishing the malaria drug discovery pipeline: Screening and hit evaluation of the MMV Hit Generation Library 1 (HGL1) against asexual blood stage Plasmodium falciparum ,using a nano luciferase reporter read-out” (2022).
Screen size: about 4,800 compounds; about 410 (8.5%) showed an effect of 50% or more. The list shows a part of the results.

The compounds below were run on Plasmodium falciparum (assay: Confirmatory screen in NF54 pLDH assay, in single point, at 2uM, 72h). Details: timepoint 72 hour.
Assay type: functional, Erythrocyte
With Cc1ccc(S(=O)(=O)Nc2ccc(Br)cc2C(=O)Nc2ccc(Oc3ccc(Br)c4ccccc34)c(Cl)c2)cc1 the “% Inhibition” value was 11%.
COC(CNC(=O)OC(C)(C)C)CC(=O)NC1CC(C)CCC1C(C)C (stereo not drawn) was tested, and the “% Inhibition” value was -2%.
With CC(=O)Nc1cccc(NC(=O)Cn2c(=O)n(CCc3cccs3)c(=O)c3ccccc32)c1 the “% Inhibition” value was 10%.
For CCN(CCCC(=O)c1ccc(F)cc1)CCc1ccccc1, the “% Inhibition” value was -9%.
For COc1cc([C@H]2CC(O)=Nc3c2c(-c2ccccc2)nn3-c2ccccc2)ccc1O, the “% Inhibition” value was 11%.
For O=C(O)[C@H]1CC(=O)N(c2ccc3nc(-c4cccc(F)c4)oc3c2)C1, the “% Inhibition” value was -19%.
For O=C(Nc1ccccc1)c1cccc(CN2CCN3CCOC[C@@H]3C2)c1, the “% Inhibition” value was -15%.
For Cc1cccc(C)c1NC(=O)c1cc(-c2cccc3ccccc23)[nH]n1, the “% Inhibition” value was 11%.
In the case of Cc1cccc(NC(=O)[C@H]2CCN(c3cn[nH]c(=O)c3)C2)c1, the “% Inhibition” value is reported as 12%.
In the case of COCc1c(Br)c(C)nc(O)c1C#N, the “% Inhibition” value is reported as -6%.
In the case of O=C(Nc1ccccc1)c1c([O-])n(-c2ccccc2)n[n+]1C[C@@H](O)CN1CCCCC1, the “% Inhibition” value is reported as 18%.
For Cc1cc(C)cc(-n2c(=O)c3sccc3n(CC(=O)N3CCCCC3)c2=O)c1, the “% Inhibition” value was -13%.
In the case of COc1ccc(-c2cc(C(=O)N[C@H]3CCN(c4ccc(=O)[nH]n4)C3)c(C)n2C)cc1, the “% Inhibition” value is reported as 58%.
With CC(NCCn1cccn1)C(=O)N1c2ccccc2CC1C (stereo not drawn) the “% Inhibition” value was -19%.
For O=C1c2ccccc2C(=O)N1Cc1cnn(CC(F)F)c1, the “% Inhibition” value was 12%.
COc1ccc(-c2cc(C(F)F)nc(N3CCN(Cc4ccccn4)CC3)n2)cc1OC was tested, and the “% Inhibition” value was -5%.
For CC(=O)N(CC[C@]1(Cc2ccccc2Cl)CCOC(C)(C)C1)Cc1ccco1, the “% Inhibition” value was -13%.
In the case of CC(C)(C)OC(=O)N1CCC[C@H]1C(=O)n1ccnc1, the “% Inhibition” value is reported as 3%.
With Cc1ccc(NC(=O)NC(=O)Cn2ccc(=O)c3sccc32)cc1C the “% Inhibition” value was 8%.
CCNC(=O)c1ccc(-c2nc(CS(=O)(=O)c3ccccc3)c(C)o2)cc1 was tested, and the “% Inhibition” value was -10%.
In the case of O=C1C[C@@H](c2ccc(C(F)(F)F)cc2)c2c(O)nc(N3CCN(CCO)CC3)nc2N1, the “% Inhibition” value is reported as 5%.
In the case of CCC(C)(C)NC(=O)c1cn(CC2(O)CCN(Cc3ccccc3)CC2)nn1, the “% Inhibition” value is reported as 16%.
O=C(Nc1[nH]c(=O)ncc1F)c1cccc2ccccc12 was tested, and the “% Inhibition” value was 72%.
For COc1ccc(NC(=O)C2=NN(CC(=O)Nc3cccc(OC)c3)C(=O)CC2)cc1, the “% Inhibition” value was -4%.
With Cc1cc(NC(=O)c2ccncc2)cc2c1OCCO2 the “% Inhibition” value was -12%.
With COc1ccc2c(NC(=O)Cc3c(C)noc3C)n[nH]c2c1 the “% Inhibition” value was 7%.
For N#Cc1nc2c(C#N)c(N)n(CCc3ccccc3)c2nc1C#N, the “% Inhibition” value was 92%.
For Cc1n[nH]c(CN(C)S(=O)(=O)Cc2cccc(C(F)(F)F)c2)n1, the “% Inhibition” value was -12%.
In the case of Cc1cc2c(cc1C)N(CC(=O)Nc1ccc(C(F)(F)F)cc1)C(=O)CC(c1cccs1)=N2, the “% Inhibition” value is reported as -23%.
For CC1(C)C(c2ccccc2)=NO[C@@H]1N1CCOCC1, the “% Inhibition” value was 16%.
In the case of Cc1cccc(N2CCN(C(=O)c3ccc4c(c3)C(=O)N(c3cc(C)on3)C4=O)C[C@@H]2C)c1, the “% Inhibition” value is reported as 8%.
For CC1(C)Oc2ccc(S(=O)(=O)NC3CCCCC3)cc2NC1=O, the “% Inhibition” value was -6%.
For CC(C)(C)OC(=O)N1CCN(C[C@H]2CN(c3ccc(F)cc3)C(=O)O2)CC1, the “% Inhibition” value was -7%.
In the case of Cc1ccc(CN2CCN(C[C@@H](O)Cn3c4ccccc4n4c(=O)cc(C)c(C#N)c34)CC2)c(C)c1, the “% Inhibition” value is reported as 96%.
For O=C(c1cc2c(s1)CCCC2)N1CCC[C@H](c2nnc3ccccn23)C1, the “% Inhibition” value was -13%.
With O=C(Nc1nccs1)C1C(c2ccccc2)C1(Cl)Cl (stereo not drawn) the “% Inhibition” value was -16%.
In the case of CCn1c(=O)c(N2CCN(C(=O)Nc3cccc(C)c3C)CC2)nc2ccccc21, the “% Inhibition” value is reported as 8%.
CC(C)(C)C(=O)/C(=N\OC(=O)Nc1ccc(Cl)cc1)n1cncn1 was tested, and the “% Inhibition” value was 0%.
In the case of Cc1ccc(S(=O)(=O)Nc2c(S(=O)(=O)c3ccc(C)cc3)c3nc4ccccc4nc3n2CCC(C)C)cc1, the “% Inhibition” value is reported as 100%.
COc1ccc(-n2c(C)nn(Cc3ccccc3)c2=O)cc1 was tested, and the “% Inhibition” value was -1%.
With C=CCCCNc1ccc(C(N)=O)c(F)c1 the “% Inhibition” value was 4%.
In the case of Cc1nn2c(-c3ccc(-c4ccccc4)cc3)ccnc2c1Br, the “% Inhibition” value is reported as 9%.
For O=S(=O)(c1c[nH]c2cccc(F)c12)N1CC[C@]2(CCOC2)C1, the “% Inhibition” value was -16%.
With Cc1cc2nc(C)c(=O)n(CCC(=O)NCCCN(C)C3CCCCC3)c2cc1C the “% Inhibition” value was 11%.
With CCC1(CC)CCC(NC(=O)[C@@H]2CCCCC(=O)N2)CC1 the “% Inhibition” value was -14%.
For O=C(c1ccc[n+]([O-])c1)N(Cc1ccccc1)Cc1ccccc1, the “% Inhibition” value was 1%.
For Nc1ccc(Cc2nnc3n2CCC3)cc1, the “% Inhibition” value was 8%.
For Cn1c(N2CCN(c3ccccn3)CC2)nc2c1c(=O)n(Cc1ccc(Cl)cc1)c(=O)n2C, the “% Inhibition” value was 8%.
In the case of CC(C)Cc1cc(C(=O)OC2CCCCCC2)[nH]n1, the “% Inhibition” value is reported as 10%.
CN1CCCN(C(=O)[C@@H]2Cc3ccccc3C(=O)O2)CC1 was tested, and the “% Inhibition” value was -14%.
With Cc1cccc(CNC(=O)NC2CCOC2c2ccc(Cl)cc2)n1 (stereo not drawn) the “% Inhibition” value was -15%.
With CCOC(=O)C1CCN(C(=O)Nc2ccc(NC(=O)N3CCC(C(=O)OCC)CC3)cc2)CC1 the “% Inhibition” value was 4%.
COc1ccc(-c2nnc(COc3ccc(-c4ccccc4)cc3)s2)cc1 was tested, and the “% Inhibition” value was -10%.
For O=C(OCC(=O)N1CCCc2ccccc21)c1nccc2ccccc12, the “% Inhibition” value was 7%.
In the case of CC[C@H]1CCCCN1c1ccc2nnnn2n1, the “% Inhibition” value is reported as 9%.
CCN1CCN(C2CCN(c3ncc(F)c(OC)n3)CC2)CC1 was tested, and the “% Inhibition” value was 50%.
With Fc1ccc(Nc2nc3c(s2)CCCC3)cc1 the “% Inhibition” value was -18%.
In the case of Cc1coc(-c2cc(NC(=O)N(CCO)CC(F)F)ccc2C)n1, the “% Inhibition” value is reported as 3%.
In the case of CC(C)c1cc(C(C)C)c(S(=O)(=O)N[C@@H](Cc2ccccc2)c2ccc(-c3ccccc3)cc2)c(C(C)C)c1, the “% Inhibition” value is reported as -14%.
In the case of N#CC1(C#N)C(c2ccc(Cl)cc2)C1(C#N)C#N, the “% Inhibition” value is reported as 19%.
For Cc1ccc(S(=O)(=O)NCC(=O)N2CCC[C@H]2c2ccc3c(c2)OCCCO3)cc1C, the “% Inhibition” value was 1%.
With COc1ccc(C(=O)C[n+]2nc(CNc3ccc(Br)cc3)n3c2CCCCC3)cc1 the “% Inhibition” value was 82%.
With O=C1C[C@H](C(=O)NC2(c3cc(C(F)(F)F)ccc3Cl)CC2)CN1 the “% Inhibition” value was -11%.
